# Test results taken from the supplement of paper PMC12217912.
# This is one part of the list. Sequences were assembled here from the parent chain. Inactive controls read about 0.05.
# B1: TEV protease; numbered along this chain (parent)
# chain: MGESLFKGPRDYNPISSSICHLTNESDGHTTSLYGIGFGPFIITNKHLFRRNNGTLVVQSLHGVFKVKDTTTLQQHLVDGRDMIIIRMPKDFPPFPQKLKFREPQREERICLVTTNFQTKSMSSMVSDTSCTFPSGDGIFWKHWIQTKDGQCGSPLVSTRDGFIVGIHSASNFTNTNNYFTSVPKNFMELLTNQEAQQWVSGWRLNADSVLWGGHKVFMVKPEEPFQPVKEATQL
# Variants of: B1
# Assay: raw area under fraction-flipped curve 0-4 h after induction (AUC4h, not background-subtracted), DNA-recorder readout of cleavage of the substrate (dimensionless); higher = more cleavage of the substrate by the protease variant
# Details: temperature: 34 °C; time window: 0-4 h after rhamnose induction
# 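Note: Bxb1 expression induced with 0.2% (w/v) L-rhamnose at OD600 near 0.5, cultures sampled hourly, flipped fraction per protease–substrate barcode pair counted by paired-end Illumina sequencing.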
Variant,area with substrate EALYFQS,area with substrate ECLYFQS,area with substrate EDLYFQS,area with substrate EFLYFQS,area with substrate EGLYFQS,area with substrate EHLYFQS,area with substrate ELLYFQS,area with substrate EPLYFQS,area with substrate ERLYFQS,area with substrate ESLYFQS,area with substrate ETLYFQS,area with substrate EVLYFQS,area with substrate EWLYFQS,area with substrate EYLYFQS,area with substrate EELYFQS,area with substrate EILYFQS,area with substrate EKLYFQS,area with substrate EQLYFQS,area with substrate EMLYFQS
R106A,0.102,0.114,0.179,0.0906,0.107,0.127,0.121,0.093,0.129,0.109,0.0909,0.113,0.0827,0.0772,–,–,–,–,–
V113G,0.076,0.0842,0.0819,0.0492,0.0288,–,–,0.0655,0.104,–,–,–,–,–,0.0837,0.0439,0.0834,0.086,–
F133W,0.118,0.103,0.143,0.0996,–,–,0.0719,0.123,0.0992,0.096,0.109,0.114,0.0969,0.115,–,0.0841,0.123,0.121,0.11
F133K,0.108,0.078,0.117,0.104,0.0045,–,–,–,0.117,0.12,–,0.0799,0.133,–,0.128,0.0993,0.11,0.119,0.128
P134D,0.0942,0.0856,0.0954,–,0.055,–,–,0.0838,0.0605,0.0775,0.0796,0.0821,0.0792,0.0769,0.0852,0.0697,0.0851,0.0821,0.0747
P134G,0.116,0.0612,0.0942,0.0718,0.0835,0.107,0.0789,0.0767,0.0855,0.0843,–,0.053,0.0795,0.0795,0.0907,–,0.0723,–,–
S135R,0.0615,0.0619,0.088,–,0.0634,0.0841,0.0848,0.0775,0.0731,0.0661,0.0718,–,–,0.069,–,0.064,0.0533,0.0054,0.0721
C111M,0.11,0.107,0.0964,–,–,–,0.0811,0.102,0.0935,0.101,–,0.0885,0.0981,0.101,0.109,0.0843,0.112,–,–
C111S,0.126,0.0972,0.15,–,–,0.119,0.0878,0.11,0.111,0.107,0.126,0.104,0.0993,0.0671,0.124,0.0824,0.0935,0.123,0.0922
T114Y,0.114,0.0946,0.122,0.136,–,0.0935,–,0.0983,–,0.0962,0.109,0.101,–,0.0867,–,0.0852,–,0.117,–
W141P,0.0497,0.0557,0.0727,0.0651,0.0585,–,0.0571,0.0546,0.0382,0.0683,–,0.0599,0.0426,0.0352,–,0.049,0.063,0.049,–
W141I,0.0765,0.0594,0.0664,0.0657,0.0613,–,–,–,–,–,0.0812,–,0.0203,–,–,0.0663,0.104,–,0.0707
W141A,0.0458,0.0694,0.0554,–,–,–,–,–,0.0677,0.0594,–,0.0973,0.0591,–,0.0588,–,0.0443,0.0457,0.0426
R109G,0.122,0.114,0.105,–,0.0849,0.0858,0.0752,0.141,–,0.092,0.118,–,0.0729,0.0912,0.119,0.104,0.106,–,0.127
R109I,0.0964,0.0954,0.0965,–,0.0836,0.114,0.0987,0.109,0.0796,0.0886,–,0.076,0.0725,–,0.111,0.0856,0.0861,0.0813,0.0982
R109Q,0.0986,0.121,0.122,–,0.112,–,0.097,0.0922,–,–,0.101,0.0971,0.0898,0.0823,0.122,0.05,–,–,0.123
R109W,0.109,0.0911,0.113,0.0921,–,–,0.087,0.112,0.0786,–,–,0.0551,0.0755,–,0.135,0.0967,–,0.11,0.072
T132I,0.117,0.097,0.153,0.0753,–,0.102,0.101,0.109,0.0978,0.0987,–,0.106,0.112,–,0.119,0.0963,0.11,0.116,–
T132A,0.0835,0.109,0.12,–,0.0908,0.15,0.0931,0.125,0.0548,0.106,–,0.106,0.106,–,0.188,0.0949,0.127,0.18,0.134
E108A,0.057,0.0672,0.0688,0.0555,0.0627,0.0633,0.0659,0.0614,0.0698,0.0633,0.0737,0.0561,–,0.0638,0.0585,–,0.0445,0.0707,0.0437
S123I,0.0897,0.0755,0.107,–,0.0883,0.0454,–,0.136,0.0923,0.111,0.181,0.0863,0.0764,–,–,0.0946,0.106,0.104,0.0864
S123D,0.109,0.109,0.129,–,–,0.123,0.0867,0.157,–,0.1,–,0.112,0.0952,0.0857,0.121,0.0964,0.104,0.11,0.117
S130Y,0.102,0.0896,0.102,0.0732,–,–,0.091,–,0.0855,0.0927,0.079,0.0606,–,–,0.0845,0.0829,–,0.126,0.106
I145K,0.0518,0.0677,0.0587,–,0.0577,0.0615,–,0.0646,0.0503,0.0594,–,0.0776,–,0.0514,–,0.0469,0.0527,0.0592,0.0466
N116S,0.113,0.163,0.142,–,–,–,–,–,0.0901,0.116,–,0.0975,0.109,–,0.149,0.104,–,–,–
